From the supplement of paper PMC4466236
In all, about 33,000 sequences were measured (“E-score (dimensionless, -0.5 to 0.5)”: median about -0.058, highest 2% from about 0.35 on). The list shows a part of the results.

The sequences below were run on MvaT (assay: PBM 8-mer E-score (mean of HK and ME arrays) (E-score (dimensionless, -0.5 to 0.5)); higher = stronger relative binding preference; most listed sequences are background and not binding sites).
Description: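 Protein binding microarray: GST-tagged full-length MvaT (P. aeruginosa PAO1) bound to two universal double-stranded 60-mer arrays (ME and HK), each with a constant 25-mer primer and a variable 35-mer region covering all 8-mers. The 8-mer E-score (rank-based, range -0.5 to 0.5, >0.45 = specific binding) is the mean of the two arrays.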

Sequence | PBM 8-mer E-score
GCGGTCTA | -0.0122
AGCAATTG | 0.159
ACGCAGCT | -0.191
CGCTGATC | -0.18
GTGACCTA | -0.228
AAATCCGA | -0.15
CGTGGTAG | -0.127
AGCTCAGG | -0.234
AGTTTTGG | 0.0675
CCTTGTAC | -0.0591
CCCCATAC | -0.233
CGCTTAAG | 0.0812
ATCTGATC | -0.129
GGTGAATA | 0.189
AAACAGAC | 0.185
ACGGACTA | 0.0336
CCGTCGCC | -0.325
TAACCGAA | 0.16
ATCAAAAT | 0.0868
GGTAGGAA | -0.129
AACGTTCA | -0.138
CCAAGAAA | 0.0478
TGCACGCA | -0.248
AATACTAA | 0.356
AGGGCATC | -0.273

Sequence | PBM 8-mer E-score
CATGCGTA | -0.173
GAATGCAA | 0.00611
ACCGGTAC | -0.109
AGACCAAG | -0.0618
AGATAGGG | -0.0696
CGATAAGC | -0.0955
TGGAGGAA | -0.289
AAAAGTCC | -0.0566
AGTCCACT | -0.0256
AAGAAGGT | -0.0662
CTACCGCC | -0.106
CTGCCAAA | -0.146
CGATTCTA | 0.00752
AAGTCATC | -0.141
AGAAGGCC | -0.303
AAGAACGG | -0.0359
TCTAAAGA | 0.188
CCTTAGCC | -0.131
CGCGAGGC | -0.195
AATAGATC | 0.103
AACCTTAT | 0.0878
ACTCCGGA | -0.0445
CCAGTCAA | 0.0826
AACGGATA | 0.0541
ACGGGCAC | -0.284

Sequence | PBM 8-mer E-score
ATGCGAAT | 0.222
AATAATGA | 0.361
GAAAATGA | 0.0956
AAAGGGGG | -0.207
TTGACAAA | 0.266
ACCTGATA | 0.08
CCCGTTCA | -0.129
CCAACAGG | -0.155
CTATATAC | 0.377
ACGATCCC | -0.0808
CCAAGCGG | -0.203
ACAATCGT | -0.12
GGTACTAA | 0.0989
GTGGCTAA | -0.0199
ACACGAGT | -0.0299
AGAGCAAG | -0.141
CGGAATTA | 0.19
CGTCCATA | 0.0563
GCGGTATA | 0.232
GGCCACCA | -0.218
AGATCACA | -0.0311
AAGGCTAT | -0.116
AGGCAGAA | -0.226
CATGTGGC | -0.181
CCCGAAAG | -0.162

Sequence | PBM 8-mer E-score
ATTGCAAG | 0.0414
GGCGCGCC | -0.233
ACTACAAT | 0.313
AGAGATCC | -0.183
CTAGCCGC | -0.166
CCACTTAC | 0.0232
AATCAAAC | 0.281
CCCCCCGG | -0.32
GGTTCATA | -0.00965
ATTTCCCA | 0.132
ATAACACG | 0.221
AGGCATCC | -0.375
GGAAGTTA | 0.227
CGATCTAC | -0.244
GTTGCTAA | 0.0853
CTGTGAAG | -0.101
CCCTGTGA | -0.176
CCTGTTAC | -0.0778
CGAACAGC | -0.223
CTCCGCAC | -0.155
GCCCTCAC | -0.201
TAATCAGA | 0.178
CATTTCAC | 0.0481
CATCTGCC | -0.295
CGCTCTCC | -0.326

Sequence | PBM 8-mer E-score
ACATGAAT | 0.284
CCTGGGGC | -0.381
AACTGCTC | -0.162
AGATTCCC | -0.178
ACGATGGG | -0.189
CTATAACA | 0.297
CCCCTCCA | -0.322
AGGCTTAT | -0.0613
ATAACGGA | 0.194
ATAGCCTA | -0.165
CGTGCAAC | -0.0835
GTCTTAGA | -0.0209
AATACAGG | 0.219
GCTGCTAA | -0.101
GGGTTACC | -0.217
AACAGATC | -9.21e-05
GTTGGCTA | -0.0873
ACGCGCCC | -0.188
CCATTATC | 0.15
CCAGTCCG | -0.243
ATCAAACC | 0.0801
GCATAGCC | -0.311
AGACTACC | -0.0133
ATCCAGTC | -0.147
AAGCGGTC | -0.186

Sequence | PBM 8-mer E-score
ACGTTCAG | -0.194
GCGGTACA | 0.0892
AGCACACT | -0.0782
AACGAGTA | 0.0595
CGTGGATA | 0.112
ATCAGATC | -0.0989
CAATTGTA | 0.209
GATGGTAC | -0.23
ACAACCCC | -0.143
AGGGACTG | -0.203
ATACGCGG | -0.0783
ATAGCCCG | -0.129
ACGATTAG | -0.109
GTGTTTAA | 0.315
GCAAAAGA | -0.148
CTGTTGCC | -0.134
GACTTTTA | 0.281
ATAGACCG | -0.0226
CTAACGAA | 0.157
GGGTGAAC | 0.0197
CTGTTCGA | 1.94e-05
AAGTGATT | 0.127
ATTCCTCC | -0.163
CTGCCGTC | -0.306
GAAATCCA | -0.0641

Sequence | PBM 8-mer E-score
GGTTAATA | 0.276
CAGCTGGG | -0.199
CTTCGCTC | -0.248
CTTCCGGA | -0.124
GTTCAATA | 0.28
AAGATCCA | -0.105
CTTTCTTA | 0.149
TATCCCCA | 0.0591
GAATAGTC | 0.00338
AGTACGCG | -0.114
GACTCGGC | -0.21
GCGTAATA | 0.244
GCTATACA | 0.135
ACCATAGT | 0.0576
GTGTCTTA | 0.0753
ATGGGAAA | 0.0599
CACTCCAA | -0.0816
CAAAAGTC | -0.0392
ATAGCTCC | -0.184
CGCCATCC | -0.338
GTAAACAA | 0.0823
CGTCTCAA | -0.0154
